Reference: PubChem BioAssay AID1508624 (National Center for Advancing Translational Sciences (NCATS), 2021)
The campaign covered roughly 48,000 compounds. About 120 (0.25%) were called active. Not shown: some 4% with an inconclusive outcome. Calls follow the shape of the dose curve; as a rule, active = well fitted activation curve with a large enough effect; inconclusive = small, poorly fitted or top-dose-only effect, or another doubt; inactive = no such curve, though single readings can be large or run the other way. The list shows a part of the results.

Assay: Primary qHTS for Identification of Small Molecule Activators of Huntingtin-Antisense Promoter Activity; also: nearly all actives have a fitted effect of over 55% in size
Settings: HEK293 HTT-AS promoter firefly luciferase reporter (activity 0% = vehicle and -100% = no light), 24 h; series mostly up to 57.5 µM; activity change, positive = activation: at the top concentration
Outline: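 Firefly luciferase readout (Dual-Glo, 10 min RT) after 24 h, 37 °C compound exposure (final up to 57.5 uM) of HEK293 reporter cells cultured 24 h beforehand; PTC124 at 50 uM final as control inhibitor; activity scaled vehicle 0%, zero RLU -100%.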

Activity change, positive = activation, inactive:
Cc1ccccc1N1CCN(S(=O)(=O)c2nnc(NC(=O)c3ccccc3)s2)CC1 -36.9%
COc1ccc(S(=O)(=O)c2c(Nc3ccc(F)cc3)sc(C(=O)c3ccc(C)cc3C)c2N)cc1 -26.5%
Cc1onc(-c2c(Cl)cccc2Cl)c1C(=O)Cl -5.04%
COc1cccc(NC(=O)c2sc3nc(C)c(C(=O)Nc4ccc(C)cc4C)c(-c4sccc4C)c3c2N)c1 4.02%
CS(=O)(=O)CCNCc1ccc(-c2ccc3ncnc(Nc4ccc(OCc5cccc(F)c5)c(Cl)c4)c3c2)o1
O=c1c2oc3ccccc3c2n(Cc2cccc(F)c2)c(=O)n1Cc1ccco1 -18%
CC(C)c1ccc2oc(-c3cc(NC(=O)c4cccs4)ccc3Cl)nc2c1 -19.2%
CC1=C(C(=O)Nc2cccnc2)C(c2cccc(O)c2)n2nc(SCc3ccccc3)nc2N1 (stereo unspecified) 8.25%
CCCn1c(=O)n(-c2cc(Cl)c(OC)cc2OC)c(=O)c2c3c(sc21)CN(C(C)=O)CC3 -15.5%
Cc1ccc([C@H]2Nc3ccc(S(=O)(=O)Nc4cccc(Cl)c4C)cc3[C@H]3C=CC[C@H]32)cc1 -13.8%
CCn1cc(CCC(=O)NCc2ccc(F)cc2)c2ccccc21 -0.109%
COc1ccc(CCNC(=O)CSc2ncc3c(n2)-c2cc(Cl)ccc2N(Cc2ccccc2)S3(=O)=O)cc1OC -16.9%
Cc1ccc(CNC(=O)c2nc(SCc3ccc(C)cc3)ncc2Cl)cc1 -15.5%
CCc1ccccc1NC(=O)Cn1c(=O)c2cccn2c2ccc(F)cc21 -8.59%
CC(C)c1ccc(NC(=O)CSC2=Nc3ccccc3C3=NC(CC(=O)NCc4ccc(F)cc4)C(=O)N23)cc1 (stereo unspecified) -37%
COc1ccc(CNC(=O)c2ccc3c(c2)N(Cc2cccc(Cl)c2)C(=O)c2ccccc2S3)c(OC)c1 -13.8%
COCCCNC(=O)CCn1c(=O)c2ccccc2n(CC(=O)Nc2c(C)cc(C)cc2C)c1=O -5.96%
Cc1ccc(-n2c(=O)c3cccnc3n2CC(=O)Nc2cccc(C)c2C)cc1 -13.5%
Cc1ccc(Cl)cc1N1CCN(C(=O)C2CCCN(S(=O)(=O)c3ccc(Br)s3)C2)CC1 (stereo unspecified) -23.2%
COc1ccccc1NC(=O)CCn1cnc2ccccc2c1=O -7.63%
Cc1ccc2nc(-c3ccc(Cl)c(NC(=O)c4cccnc4)c3)oc2c1 7.3%
CCOc1ccc(NC(=O)CSc2nccn2-c2cccc(C)c2C)cc1 -29.4%
Oc1ccc(Cl)c2cccnc12 -11.5%
CC(=O)N1CCCc2cc(S(=O)(=O)N3CCCCC3)ccc21 -9.98%
CCOc1ccccc1CNC(=O)c1cc2c(=O)n(Cc3ccccc3)ccc2nc1C -35.8%
CN(C(=O)c1cc2c(=O)oc3ccccc3c2s1)c1ccc(F)cc1 -9.74%
CCCCn1c2ccc(F)cc2c2nnc(SCCN3CCCCC3)nc21 -6.27%
O=S(=O)(NCC(c1ccco1)S(=O)(=O)c1cccs1)c1ccc(F)c(C(F)(F)F)c1 (stereo unspecified) -37.6%
Cc1ccc(OCC(=O)NCC(=O)OCc2cc(=O)n3nc(C)sc3n2)cc1 -4.85%
CCOC(=O)C1CCN(S(=O)(=O)c2cc(-c3onc(C)c3C)ccc2OC)CC1 -26.3%
COc1ccc(OC)c(CNC(=O)C2CCN(S(=O)(=O)c3cn(C)cn3)CC2)c1 -1.93%
COc1cc(Cl)c(C)cc1NC(=O)c1cc(CN2CCOCC2)on1 11.2%
CCc1ccc(NC(=O)CCS(=O)(=O)c2ccc3c(c2)CCN3C(C)=O)cc1 -17%
CCc1ccccc1NC(=O)Nc1cc(C(=O)NCc2ccc(C(C)C)cc2)ccc1N1CCCC1 -6.3%
Cc1cc(NC(=O)c2ccc3c(c2)N(Cc2cccc(Cl)c2)C(=O)c2ccccc2S3=O)ccc1Br (stereo unspecified) -9.63%
Cc1ccc(S(=O)(=O)c2cn(Cc3ccccc3F)c3cc4c(cc3c2=O)OCO4)cc1 5.43%
CC1CCCN(Cc2c(O)ccc3c(=O)c(Oc4ccccc4Cl)c(C(F)(F)F)oc23)C1 (stereo unspecified) -13.1%
CO[C@@H]1[C@@H](O)[C@H](O)[C@@H](n2c3c(Cl)cccc3c3c4c(c5c6cccc(Cl)c6[nH]c5c32)C(=O)NC4=O)O[C@@H]1CO -36%
CCC1CN(S(=O)(=O)c2cc(-c3cc(C)no3)ccc2OC)c2cc(C)ccc2O1 (stereo unspecified) -25.5%
CCC(=O)c1ccc(O)cc1 -1.15%
CCOc1ccc(C(=O)Nc2nnc(SCc3cc(=O)c4cc(C)ccc4[nH]3)s2)cc1 3.36%
COc1cccc2sc(N(Cc3cccnc3)C(=O)COc3ccccc3)nc12 -26.2%
Cc1nn(-c2ccccc2)c(OC(=O)c2ccccc2F)c1S(=O)(=O)c1ccccc1 -18.1%
Cc1ccc(C)c(NC(=O)CSc2nc(=O)n(CCN(C)C)c3c2CCC3)c1 -1.08%
COc1cc(CN(C(=O)c2ccccc2[N+](=O)[O-])c2ccccn2)cc(OC)c1OC -9.01%
Cc1sc2c(c1C)c(=O)n(CCc1ccccc1)c(=O)n2Cc1ccccc1Cl 9.63%
CCn1c(=O)c2cc(C(=O)N3CCN(c4cccc(Cl)c4)CC3)sc2c2ccccc21 -34.2%
CC1CCN(S(=O)(=O)c2ccc3c(c2)N(CC(=O)NCCCN2CCCCC2C)C(=O)CS3)CC1 (stereo unspecified) 1.04%
N#Cc1ccccc1NC(=O)c1cc2c(=O)n3ccccc3nc2s1 -16%
COc1ccc(CCNC(=O)C2=C(C)C(=O)OC23CCCCC3)c(OC)c1OC -7.69%
CCN(CC)S(=O)(=O)c1ccc2c(c1)nc(CN(C)C(=O)c1cccc(Cl)c1)n2C -14.9%
CCCCN(CCCC)C(C(N)=O)c1ccc(OC)cc1 (stereo unspecified) -1.35%
CCOC(=O)c1c(NC(=O)c2ccccc2C)sc2c1CCCC2 -17.4%
O=C(CN1C(=O)COc2ccc(S(=O)(=O)N3CCCC3)cc21)NCCc1ccc(Cl)cc1 -16.9%
CCOc1ccc2nc(N3CCN(C(=O)C(C)C)CC3)sc2c1 15.9%
O=c1[nH]c2ccc(NS(=O)(=O)c3ccc(F)cc3)cc2s1 -10.4%
COc1ccc2oc(=O)cc(CN3CCN(C(=O)c4ccccc4Br)CC3)c2c1 -21.4%
COc1cc(OC)c(C(=O)CCCN2CCCC2)c(OC)c1
Cn1nnnc1SCCCNCc1ccc(-c2cccc(Cl)c2)o1 -5.77%
Brc1ccc(-c2nc(N3CCN(c4ccccc4)CC3)c3ccccc3n2)cc1 -29.8%
COc1ccc(C(=O)NCc2nnc(SCC(=O)Nc3ccc(C)cc3)n2-c2ccccc2)cc1 -8.82%
